In the supplement of paper PMC3334620:
In all, about 33,000 sequences were measured (“E-score (-0.5 to 0.5)”: median about -0.041, highest 2% from about 0.37 on). This is one part of the list.

target: T1, Ecm22 (UniProt Q05958); assay: PBM E-score (8-mer binding enrichment) (E-score (-0.5 to 0.5)); higher = stronger / more preferred TF binding; most listed sequences are background and not binding sites; settings: protein concentration: 200 nM; construct: GST-full length
T1 sequence: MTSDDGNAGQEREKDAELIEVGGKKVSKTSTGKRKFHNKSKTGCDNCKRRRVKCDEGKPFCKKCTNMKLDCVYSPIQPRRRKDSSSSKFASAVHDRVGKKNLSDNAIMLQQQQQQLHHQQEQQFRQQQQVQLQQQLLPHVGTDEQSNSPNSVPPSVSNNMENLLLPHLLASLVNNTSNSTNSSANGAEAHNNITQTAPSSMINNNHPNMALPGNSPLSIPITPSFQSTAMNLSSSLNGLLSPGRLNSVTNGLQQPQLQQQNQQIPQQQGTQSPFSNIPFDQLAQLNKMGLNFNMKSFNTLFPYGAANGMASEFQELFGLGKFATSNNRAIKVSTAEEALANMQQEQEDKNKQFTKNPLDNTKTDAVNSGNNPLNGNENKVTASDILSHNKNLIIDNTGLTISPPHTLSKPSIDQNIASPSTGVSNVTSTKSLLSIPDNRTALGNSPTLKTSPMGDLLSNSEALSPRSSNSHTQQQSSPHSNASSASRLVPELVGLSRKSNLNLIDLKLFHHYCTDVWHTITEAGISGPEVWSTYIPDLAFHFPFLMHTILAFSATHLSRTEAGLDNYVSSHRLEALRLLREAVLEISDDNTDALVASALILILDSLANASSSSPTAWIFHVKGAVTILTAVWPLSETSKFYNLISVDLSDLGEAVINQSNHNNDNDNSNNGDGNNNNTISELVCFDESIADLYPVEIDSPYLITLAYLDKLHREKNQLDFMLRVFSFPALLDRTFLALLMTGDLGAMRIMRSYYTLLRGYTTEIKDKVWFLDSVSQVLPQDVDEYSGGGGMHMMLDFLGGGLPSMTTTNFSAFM
How it was run: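 For each ungapped eight-base word taken together with its reverse complement, the Universal PBM Analysis Suite assigned an E-score. Binding data came from GST-tagged yeast transcription factors, applied at about 100-200 nM, on universal all-10-mer Agilent arrays made double-stranded by primer extension. Fluorescent anti-GST marked bound protein, and scans were normalised with masliner.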

First: CGTCCCGA
Second: CTACCGAC
The “PBM E-score” value of the first is higher: 0.0631 for the first, 0.0524 for the second.

Going from ATTTTGAC to AAAACGGT, the “PBM E-score” value falls from -0.0484 to -0.0632.

First: GCCCAGCC
Second: GACTATAA
The “PBM E-score” value of the first is lower: -0.171 for the first, -0.164 for the second.

Compared with AACCACCC, ACTGATCC is higher in “PBM E-score” value: -0.173 for the first, -0.11 for the second.

Compared with AAACAAAT, GCAAAACC is lower in “PBM E-score” value: 0.137 for the first, -0.142 for the second.

Going from CTGAAACC to AATCACAG, the “PBM E-score” value rises from -0.173 to 0.0551.

Going from CAATTACG to AGCATACT, the “PBM E-score” value falls from 0.0313 to 0.0121.

First: ATTTGATA
Second: AGATCTAG
The “PBM E-score” value of the first is higher: 0.157 for the first, -0.225 for the second.

First: CCATACTA
Second: GCCTCGAC
The “PBM E-score” value of the first is higher: -0.0572 for the first, -0.0771 for the second.

Compared with ACGTAAGG, ATAGATAT is higher in “PBM E-score” value: -0.0756 for the first, 0.107 for the second.

First: ACAACCTG
Second: ATACACCA
The “PBM E-score” value of the first is higher: -0.0952 for the first, -0.107 for the second.

Going from AGTGGGAG to AGTGTCGC, the “PBM E-score” value rises from -0.168 to 0.0578.

ATTTTCCC and GGCACACC are the same in “PBM E-score” value: -0.145 for the first, -0.145 for the second.

Going from CGACTAAG to GTATTTAA, the “PBM E-score” value rises from 0.0685 to 0.148.

Compared with TCTACGAA, TCTGCAGA is lower in “PBM E-score” value: 0.312 for the first, 0.0933 for the second.

Compared with AGGGCCGA, ACGCGGCA is higher in “PBM E-score” value: -0.0414 for the first, 0.0289 for the second.

Compared with CGGTAGCA, CAGGATGC is higher in “PBM E-score” value: -0.222 for the first, 0.0055 for the second.

First: AAGCATGC
Second: AGCTGTGC
The “PBM E-score” value of the first is lower: -0.128 for the first, 0.00514 for the second.

Compared with GAAAAGAA, GAGGATAA is lower in “PBM E-score” value: 0.0308 for the first, -0.0543 for the second.

First: ACTGAACA
Second: AGGGCTGA
The “PBM E-score” value of the first is higher: 0.019 for the first, -0.196 for the second.

First: AGGTAGCG
Second: TACACATA
The “PBM E-score” value of the first is higher: 0.058 for the first, 0.0407 for the second.

Going from ACGCCGGC to GCATATGC, the “PBM E-score” value falls from 0.0119 to 0.00244.

Going from AGCAAGAG to AAGTAAAT, the “PBM E-score” value rises from -0.216 to -0.146.

Compared with ATGGACAC, CTGCTTTC is lower in “PBM E-score” value: -0.0733 for the first, -0.11 for the second.

Compared with CTCCAATC, CAGACACG is higher in “PBM E-score” value: -0.0044 for the first, 0.121 for the second.

Compared with GCCCAACC, ATATTGTC is higher in “PBM E-score” value: 0.0862 for the first, 0.111 for the second.

First: AAGAGCCT
Second: AACGTGTG
The “PBM E-score” value of the first is lower: -0.177 for the first, -0.0203 for the second.

Compared with ATGCTAAG, GTCAGATA is higher in “PBM E-score” value: -0.258 for the first, -0.0728 for the second.

Compared with ACGCTCAC, CTGATTGC is lower in “PBM E-score” value: 0.0568 for the first, -0.203 for the second.

Going from GATACAGC to TCTTAAGA, the “PBM E-score” value falls from -0.0604 to -0.135.

Compared with AAATCGGG, ATATCTAA is higher in “PBM E-score” value: -0.156 for the first, 0.0856 for the second.

Going from CTCGGAGA to GTCCTAGA, the “PBM E-score” value falls from 0.0218 to -0.188.

Going from AAACCATG to TGACGTCA, the “PBM E-score” value falls from -0.0146 to -0.0699.

Compared with GAACTACC, ATCATAGC is lower in “PBM E-score” value: -0.0337 for the first, -0.0799 for the second.

Going from AGAACAGC to GAACACGC, the “PBM E-score” value rises from -0.0781 to 0.0656.

Going from CTAATCTA to CTGCTGAC, the “PBM E-score” value rises from -0.0176 to 0.093.

Compared with CTATGGGA, AAGTGCCC is lower in “PBM E-score” value: -0.161 for the first, -0.34 for the second.

First: ACCTTTCA
Second: ACGCGGCG
The “PBM E-score” value of the first is lower: -0.0376 for the first, 0.107 for the second.

Compared with GACGATCC, GGCGTAAC is lower in “PBM E-score” value: 0.00412 for the first, -0.0339 for the second.

First: AAATACTT
Second: ATGATACA
The “PBM E-score” value of the first is higher: -0.0709 for the first, -0.0736 for the second.

Going from ACATACGC to TGTAAGAA, the “PBM E-score” value falls from 0.221 to 0.0478.

Compared with CAATCACG, AATAATGG is lower in “PBM E-score” value: 0.0345 for the first, -0.062 for the second.

Compared with TAACTAGA, GGTAGATA is higher in “PBM E-score” value: -0.134 for the first, 0.0794 for the second.

Compared with CGGTTATC, ATAAACAG is lower in “PBM E-score” value: 0.216 for the first, -0.141 for the second.

Compared with ACTGAATA, AACCCGCT is lower in “PBM E-score” value: -0.0244 for the first, -0.238 for the second.

Going from AGAGACCA to AACGACTA, the “PBM E-score” value rises from -0.136 to 0.372.

Compared with CTTAGGTA, CGAGGTAA is higher in “PBM E-score” value: -0.0284 for the first, 0.282 for the second.

First: TCCGGCAA
Second: GCCCCCCA
The “PBM E-score” value of the first is higher: -0.0482 for the first, -0.365 for the second.

Compared with ACTTTTCT, ATGCTGCA is higher in “PBM E-score” value: -0.105 for the first, -0.0735 for the second.

First: CACACAAC
Second: ACTGCCGA
The “PBM E-score” value of the first is lower: -0.0974 for the first, 0.0815 for the second.

First: GCTACAGC
Second: GATTGGCC
The “PBM E-score” value of the first is higher: -0.0206 for the first, -0.213 for the second.

Going from AAACAGTT to ACGCACTC, the “PBM E-score” value rises from -0.123 to 0.0457.

Compared with AAACTTGA, AGTAGCAT is higher in “PBM E-score” value: -0.267 for the first, -0.0436 for the second.

Compared with AAGACTCA, AGTTGCAA is higher in “PBM E-score” value: -0.237 for the first, -0.0399 for the second.

Compared with CTCATAAC, ATGACAAT is higher in “PBM E-score” value: -0.0818 for the first, 0.126 for the second.

Going from ACCGGCGT to TCGCTACA, the “PBM E-score” value rises from 0.0869 to 0.11.

First: ATGAATGC
Second: CCACCAAC
The “PBM E-score” value of the first is higher: -0.0891 for the first, -0.119 for the second.

Compared with TAAAGACA, CGCCTCTC is higher in “PBM E-score” value: -0.196 for the first, -0.179 for the second.

First: GAATGCTC
Second: CAGGCTGA
The “PBM E-score” value of the first is higher: -0.0572 for the first, -0.325 for the second.

Compared with CCATAGGC, ACGAGCTG is higher in “PBM E-score” value: -0.0851 for the first, 0.411 for the second.

Going from CTTCTGAC to CAAGCGCA, the “PBM E-score” value rises from -0.265 to 0.159.

First: ACATGAAC
Second: ATCACAGG
The “PBM E-score” value of the first is higher: 0.0573 for the first, -0.112 for the second.

First: TGCTCCAA
Second: GTATTCAC
The “PBM E-score” value of the first is lower: -0.232 for the first, 0.00932 for the second.

Going from TCTCGTAA to AAACGTAC, the “PBM E-score” value falls from 0.438 to 0.288.

First: ATGCTACG
Second: CCCAGTCG
The “PBM E-score” value of the first is higher: 0.242 for the first, -0.00403 for the second.

First: GAGCATAA
Second: AAATTTAA
The “PBM E-score” value of the first is lower: 0.0875 for the first, 0.113 for the second.

Going from AATTTCTG to GTTCTGCA, the “PBM E-score” value falls from 0.138 to -0.0368.

First: ATACGTAG
Second: ACTCAGCC
The “PBM E-score” value of the first is higher: 0.22 for the first, -0.199 for the second.

Going from CCGTGCTA to ATGCCCAT, the “PBM E-score” value rises from -0.249 to -0.166.

Going from CATCGTCG to ACTGCACA, the “PBM E-score” value falls from 0.0968 to -0.113.

Going from CGAAGACC to ATCCCCGG, the “PBM E-score” value falls from 0.132 to -0.0814.

Going from CTCTTAAG to AGTCGCCA, the “PBM E-score” value falls from 0.0377 to -0.167.

Compared with CTTTGAGC, ATCCTGCG is higher in “PBM E-score” value: -0.171 for the first, -0.0454 for the second.

Going from CATTATTC to TCCTTCCA, the “PBM E-score” value falls from -0.0305 to -0.208.

First: GGGAAGAA
Second: ACACAAGG
The “PBM E-score” value of the first is higher: -0.108 for the first, -0.141 for the second.

Going from ATAGGTCG to AGACAGCT, the “PBM E-score” value falls from 0.0323 to -0.329.

Going from AGTTAATA to GCACCCGC, the “PBM E-score” value falls from 0.0875 to 0.0501.

First: CTCACCGC
Second: AGGGTGAT
The “PBM E-score” value of the first is lower: -0.0829 for the first, 0.0727 for the second.

Compared with CGAATCGC, ACTGCACT is lower in “PBM E-score” value: 0.149 for the first, -0.156 for the second.

First: CGCAAAAC
Second: CATGACCG
The “PBM E-score” value of the first is higher: 0.187 for the first, 0.0281 for the second.

Going from CTTGAGAC to CACGAATG, the “PBM E-score” value rises from -0.25 to 0.052.

Compared with ATAGGTAA, AGACCTCT is lower in “PBM E-score” value: -0.0147 for the first, -0.128 for the second.

Compared with ACGCCTTC, CCCACTCG is higher in “PBM E-score” value: 0.0216 for the first, 0.207 for the second.

Compared with ACCTTTCC, ATTAGTTC is higher in “PBM E-score” value: -0.205 for the first, 0.0121 for the second.

Going from CGAGGGGC to CGCAGGAC, the “PBM E-score” value falls from 0.129 to -0.0476.

Going from CATATATG to AAAAGTTG, the “PBM E-score” value rises from -0.192 to -0.0845.
